Experimental data published in the antibiotic and cytotoxicity screens of Wong et al. (2023).
This is one part of the list.

System: HSkMC (human skeletal muscle cells)
Test: cytotoxicity call (relative viability < 0.9)
Settings: 10 µM

| Structure (SMILES) | cytotoxicity call |
| --- | --- |
| C[C@@H]1CN([C@H](C)CO)S(=O)(=O)c2ccc(C#CC3CCCCC3)cc2O[C@H]1CN(C)C(=O)Cc1ccncc1 | inactive |
| CNC[C@H]1Oc2c(NS(=O)(=O)c3cn(C)cn3)cccc2C(=O)N([C@@H](C)CO)C[C@H]1C | inactive |
| C[C@@H]1CN([C@@H](C)CO)C(=O)c2cccc(N(C)C)c2O[C@@H]1CN(C)S(=O)(=O)c1ccc(Cl)cc1 | inactive |
| C[C@H](CO)N1C[C@H](C)[C@H](CN(C)S(=O)(=O)c2ccc(F)cc2)Oc2ccc(NC(=O)Nc3ccc(C(F)(F)F)cc3)cc2C1=O | active |
| COc1ccc(NC(=O)N(C)C[C@@H]2Oc3ncc(C#C[C@H](C)O)cc3C(=O)N([C@@H](C)CO)C[C@@H]2C)cc1 | inactive |
| CC(C)NC(=O)Nc1ccc2c(c1)C(=O)N([C@H](C)CO)C[C@@H](C)[C@H](CN(C)S(=O)(=O)c1ccc(Cl)cc1)O2 | inactive |
| C[C@H]1CN([C@@H](C)CO)C(=O)c2cc(NS(=O)(=O)c3ccc(Cl)cc3)ccc2O[C@@H]1CN(C)Cc1ccc(C(=O)Nc2ccccc2N)cc1 | inactive |
| COc1ccc(CNC(=O)C[C@H]2CC[C@H]3[C@@H](COc4ccc(NC(=O)C(C)C)cc4C(=O)N3C)O2)cc1 | inactive |
| Cc1nnc(SCC2=C(C(=O)O)N3C(=O)[C@@H](NC(=O)Cn4cnnn4)[C@H]3SC2)s1 | inactive |
| COC(=O)C1=C(C)NC(C)=C(C(=O)OC)C1 | inactive |
| C[C@@H]1CN([C@H](C)CO)C(=O)c2cc(-c3cccc(C(=O)N(C)C)c3)cnc2O[C@@H]1CN(C)S(=O)(=O)c1ccc(F)cc1 | inactive |
